We go through one molecule from patent US20130039912A1 (Sanofi, published 2013).

For test [1], the target named is T1, Slit2-D2 (human).
T1 construct: Used purified (ELISA, SPR) and expressed by transient transfection of pXL4911 in HEK293 cells (FACS); also called human Slit2-D2 protein; D2 domain of human Slit2
T1 chain: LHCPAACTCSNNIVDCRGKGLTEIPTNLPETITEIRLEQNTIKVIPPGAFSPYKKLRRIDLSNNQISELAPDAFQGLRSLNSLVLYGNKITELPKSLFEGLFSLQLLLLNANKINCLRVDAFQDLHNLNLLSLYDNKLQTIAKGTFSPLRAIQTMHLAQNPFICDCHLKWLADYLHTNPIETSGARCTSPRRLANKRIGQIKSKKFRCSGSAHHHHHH
Kind of test: SPR, Slit2-D2 on CM5 chip, two-phase Scatchard model, high-affinity site. As for the experimental part: (§1) A second method, which consists in determining the affinity constant between the Robo1-Fc L1 fusion protein and the human Slit2 protein, was analysed after having bound the Slit2-D2 protein to the CM5 chip. The kinetic measurements are carried out according to the protocol of Canziani eta((2004. Anal. Biochem. 325: 301-307) using the Scatchard method according to a model with two non-equivalent binding sites, […]

Test [2] concerns the target T1, Slit2-D2. Kind of test: SPR, Slit2-D2 on CM5 chip, two-phase Scatchard model, low-affinity site. As for the experimental part: as §1
Test [3] concerns the target T1, Slit2-D2. Kind of test: ELISA, Slit2-D2 coated, Robo1-Fc titrated, anti-human IgG-HRP. As to the method: (§2) The D2 domain of the human Slit variants was bound to Immulon-4 enzyme-linked plates (VWR Scientific Inc. Swedesboro, N.J.). A concentration range (from 1 μg/mL to 0.001 μg/mL) of the Robo1-Fc L1 fusion protein was added and than detected using the peroxidase-conjugated goat anti-human IgG antibody (Sigma; ref. A0170, dilution to 1:50 000). Visualization was carried out with the TMB-H₂O₂ substrate (Interchim; ref UP664780) and the measurements were carried out with a plate reader at 450 nm. Similarly, the Robo1-Fc Slit2-minus variant, which is mutated at the level of the Slit2-binding site, was evaluated according to a concentration range (from 20 μg/mL to 0.02 μg/mL) by ELISA assay under the same conditions described above.
In general terms: An ELISA detects its analyte on a solid surface through an enzyme-linked reagent.

Test [4] has as its target T2, Slit1-D2 (human).
T2 chain: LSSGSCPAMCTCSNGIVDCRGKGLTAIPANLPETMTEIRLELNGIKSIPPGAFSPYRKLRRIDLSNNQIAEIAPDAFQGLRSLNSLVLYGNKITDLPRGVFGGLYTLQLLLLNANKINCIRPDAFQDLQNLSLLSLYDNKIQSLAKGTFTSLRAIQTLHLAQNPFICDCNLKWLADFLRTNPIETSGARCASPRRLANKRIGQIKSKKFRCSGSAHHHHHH
The test is described as follows: ELISA, Slit1-D2 coated, Robo1-Fc titrated, anti-human IgG-HRP. As for the experimental part:
as §2

In test [5] the target is T3, Slit3-D2 (human).
T3 chain: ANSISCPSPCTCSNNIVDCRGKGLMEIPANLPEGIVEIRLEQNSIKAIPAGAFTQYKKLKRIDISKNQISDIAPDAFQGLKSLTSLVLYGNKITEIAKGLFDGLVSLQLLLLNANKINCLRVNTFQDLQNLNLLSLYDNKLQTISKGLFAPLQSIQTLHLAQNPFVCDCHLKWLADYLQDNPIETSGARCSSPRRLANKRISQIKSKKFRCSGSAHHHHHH
Kind of test: ELISA, Slit3-D2 coated, Robo1-Fc titrated, anti-human IgG-HRP. As for the experimental part:
as §2

The target in test [6] is T1, Slit2-D2. Kind of test: SPR (BIAcore 2000), Robo1-Fc on CM5 chip, steady-state analysis. As to the method:
This example describes the determination of the affinity constant of the Robo 1-Fc L1 fusion protein with the human Slit2 protein (in this experiment, Slit2-D2) by SPR (Surface Plasmon Resonance; BIAcore 2000). The interaction between the Robo1-Fc protein and the human Slit2 protein was analysed after having bound the Robo1-Fc fusion protein to a CM5 chip. The kinetic measurements were carried out according to the protocol of Canziani et al. (2004. Anal, Biochem. 325: 301-307).

B1: Robo1-Fc L1 (Fc fusion)
chain: SRLRQEDFPPRIVEHPSDLIVSKGEPATLNCKAEGRPTPTIEWYKGGERVETDKDDPRSHRMLLPSGSLFFLRIVHGRKSRPDEGVYVCVARNYLGEAVSHNASLEVAILRDDFRQNPSDVMVAVGEPAVMECQPPRGHPEPTISWKKDGSPLDDKDERITIRGGKLMITYTRKSDAGKYVCVGTNMVGERESEVAELTVLERPSFV[here human IgG4 Fc with changes without letters]
notes: also called Robo-Fc L1; Robo1-Fc L1 biotherapeutic agent
For the molecule B1, the results for the Kd in test [1], in test [2] and in test [6] were 1.5 nM, 160 nM and 32 nM, respectively. The values for the EC50 in test [3], in test [4] and in test [5] were 0.132 µg/mL, 0.0788 µg/mL and 0.26 µg/mL, respectively.
